# Test results reported in PubChem BioAssay AID686971 (National Center for Advancing Translational Sciences (NCATS), 2013).
# Among all 360,000 compounds or so, about 7,500 (2.1%) were called active. The shares of active, inactive and inconclusive entries below differ from those in the screen. Calls follow the shape of the dose curve; as a rule, active = well fitted cell-killing curve with a large enough effect; inconclusive = small, poorly fitted or top-dose-only effect, or effect the other way, or another doubt; inactive = no such curve, though single readings can be large or run the other way. Potencies of inconclusive entries are left out as doubtful fits.
# Test: qHTS for induction of synthetic lethality in tumor cells producing 2HG: qHTS for the HT-1080-IDH1KD cell line;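 as to activity, negative = toxicity: 0% = DMSO wells and -100% = cell-free medium wells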
# Conditions: HT-1080 IDH1 knockdown viability, ATP luminescence, 48 h; activity, negative = toxicity: at 46.1 µM (top of the series) unless noted
# In short: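 After a 2 h attachment period, IDH1KD HT-1080 cells took pin-transferred compound for 48 h at 37 °C; ATP-based luminescence after 10 min room-temperature reagent incubation reported viability.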
# Potency is read from the fitted curve at half-maximal effect; tags tell the direction and shape of the fitted curve.
Structure (SMILES),"activity, negative = toxicity",Potency
O=C(N/N=C/c1ccc2c(c1)OCO2)C(=O)Nc1ccccc1,inactive: 12%,
COC(=O)[C@H](C(C)C)N(Cc1ccccc1)S(=O)(=O)CCNC1CCCC1,inactive: -7.23%,
Cc1cccc(C)c1OCC(O)CNC(C)c1ccccc1 (stereo not given),,"inconclusive [cytotoxic, full curve]"
c1ccc(Cn2nnc3c(N4CCCC4)ncnc32)cc1,,"inconclusive [cytotoxic, single point]"
CCOC(=O)COc1ccc(S(=O)(=O)NCc2ccncc2)cc1,,"inconclusive [rising, single point]"
O=C(Cn1nnc(-c2ccc(F)cc2)n1)OCC(=O)c1ccccc1,inactive: 2.43%,
CCN(c1ccccc1)S(=O)(=O)c1cccc(C(=O)NCC(c2ccco2)N2CCCCC2)c1 (stereo not given),,"inconclusive [cytotoxic, single point]"
CCN(CC)CCn1c(NCc2nc3ccccc3n2Cc2ccccc2)nc2ccccc21,,active: 11.2 µM
COc1ccc2c(c1)CCC(C)N2S(=O)(=O)c1ccc(C2CNC(=O)C2)cc1 (stereo not given),,"inconclusive [cytotoxic, single point]"
CCCCNC(=O)NS(=O)(=O)c1ccc(C)cc1,,"inconclusive [cytotoxic, single point]"
CC(=O)Nc1c(-c2ccccc2)c2cc(Br)ccc2[nH]c1=O,inactive: -9.26%,
CC1(C)CCC[C@]2(C)[C@H]3Cc4cc(O)ccc4O[C@]3(C)CC[C@@H]12,,"inconclusive [cytotoxic, single point]"
Cc1ccc(-n2c(SCC(=O)Nc3cccc(S(=O)(=O)NC4=NCCCCC4)c3)nc3ccccc3c2=O)cc1C,inactive: 11.3%,
Cc1c(CC(=O)N2CCC(C(=O)O)CC2)c(=O)oc2cc3c(cc12)CCC1(CCCCC1)O3,inactive: -9.5%,
Cc1ccc(Oc2ccc(-c3nc(N)nc(N)n3)cc2)cc1C,,"inconclusive [cytotoxic, single point]"
CC1(NC(=O)Cc2csc(-c3cccc(Cl)c3)n2)CCS(=O)(=O)C1 (stereo not given),inactive: 0.659%,
CCSc1nc(O)cc(=O)[nH]1,inactive: 14.8%,
OC(COc1ccccc1)Cn1c2ccccc2c2ccccc21 (stereo not given),,"inconclusive [cytotoxic, single point]"

Structure (SMILES),"activity, negative = toxicity",Potency
O=C1NC[C@@H](CCCCN2CCN(CCc3ccc(O)cc3)C(=O)C2=O)N(Cc2ccccc2)C1=O,,"inconclusive [cytotoxic, single point]"
COc1ccc(N2C(=O)c3ccccc3NC2c2ccc(OC)c(CSc3ccccn3)c2)cc1 (stereo not given),,"inconclusive [cytotoxic, single point]"
Cn1ncc2c(N3CCN(c4ccc(Cl)c(Cl)c4)CC3)ncnc21,inconclusive: -7.72% [cytotoxic],
Cc1c(NC(=O)CSc2cccc3cccnc23)c(=O)n(-c2ccccc2)n1C,,"inconclusive [cytotoxic, single point]"
CCOC(=O)C1CCN(CCC(=O)Nc2ccc(Br)c(C)c2)CC1,,"inconclusive [cytotoxic, single point]"
COc1ccc2[nH]c(CN3CCC(CO)(CCOc4ccccc4)CC3)c(C)c2c1,,active: 23.1 µM
COCCNC(=O)c1cn(C)c2ccc(S(=O)(=O)N3CCCCC3)cc2c1=O,,"inconclusive [cytotoxic, single point]"
COc1ccc(Cl)cc1C(=O)NNC(=S)NC(=O)c1cc(-c2ccc(Cl)cc2)nc2ccccc12,,"inconclusive [cytotoxic, full curve]"
CCCC(=O)OCCNc1cc(Sc2nccn2C)c2nonc2c1[N+](=O)[O-],,active: 14.6 µM
Cc1ccc2occ(CN3CCN(c4ccccc4)CC3)c(=O)c2c1,,"inconclusive [cytotoxic, single point]"
CCOC(=O)c1ccc2c(c1)n(CCO)c(C)[n+]2CC,inactive: 7.59%,
CC(=O)Nc1cc(NC(C)=O)cc(C(=O)OCC(=O)Nc2ccc(S(=O)(=O)NC3=NCCCCC3)cc2)c1,inactive: 7.33%,
CCN(CC)C(=O)CSc1nc(-c2cccs2)cc(-c2cccs2)c1C#N,inactive: -3.08%,
O=C1N[C@@H](c2ccccc2)COC(=O)[C@H](Cc2ccc(F)cc2)CC/C=C/C[C@H]1CC(=O)N(CCO)Cc1ccccc1,,"inconclusive [cytotoxic, single point]"
COc1ccc2nc(C)cc(Nc3ccc(C)cc3)c2c1,,"inconclusive [cytotoxic, partial curve]"
Cc1cc2cc(CN(CCN(C)C)C(=S)NCc3ccco3)c(=O)[nH]c2cc1C,,"inconclusive [cytotoxic, partial curve]"
COc1cccc(C(=O)c2c[nH]c(C(=O)NCc3cccnc3)c2)c1,,"inconclusive [cytotoxic, single point]"
